# Values joined by “and” are separate entries in the source; they are usually repeats but may differ in a detail not shown here. Equal values may be shown once. The shares of active, inactive and inconclusive entries below differ from those in the screen. A potency beside an inconclusive call is a rough fit, not a confirmed value. Active and inactive are the calls of the source. Calls follow the shape of the dose curve; as a rule, active = well fitted cell-killing curve with a large enough effect in the repeat runs; inconclusive = weak or mixed curves, or effect the other way; inactive = flat fitted curve, though single readings scatter. *1 amine or outer side, *2 acyl side, *3 side chain or, on linkers, in order; H or OH if unused. Where a SMILES comes first, the peptide text is derived from it. Bridges are numbered along the chain shown (N, C = ends). Roman numbers before positions name the chains, in order. [ ]: non-standard residue; d: D form. Actinocin(9to1) = Cc1c2oc3c(C)ccc(C(=O)[*:1])c3nc-2c(C(=O)[*:2])c(N)c1=O; NMeV = CN[C@H](C(=O)O)C(C)C; Sar = CNCC(=O)O
# Experiment: qHTS assay to identify small molecule agonists of the constitutive androstane receptor (CAR) signaling pathway - cell viability counter screen (AID 1224836); also: nearly all actives have a fitted effect of over 45% in size
# Details: HepG2-CYP2B6-hCAR viability, CellTiter-Fluor, 23 h, PK11195 added to every well; series mostly up to 92.4 µM
# From the text: U.S. Tox21 Program National Center for Advancing Translational Sciences [NCATS] NIH Chemical Genomics Center [NCGC] U.S. Environmental Protection Agency [EPA] National Institutes of Environmental Health Sciences [NIEHS] National Toxicology Program [NTP] U.S. Food and Drug Administration [FDA] Tox21 Assay Overview: The constitutive androstane receptor (CAR) is a nuclear receptor which regulates multiple drug metabolizing enzymes (DMEs) and transporters. Activating CAR will generally increase the transcription and subsequent translation of CYP2B6 and CYP3A4. These two DMEs represent about 50% of the drug metabolizing potential in the body. […] Recently, there have also been studies performed indicating CARs role in energy metabolism and cancer therapy. Therefore, inducing CARs activity could have a potential effect on diabetes and cancer. Identifying environmental toxins and compounds which modulate CAR, through the use of the Tox21 10K compound collection, will be an important step in determining the toxicity and potential therapeutic effects these factors will have on the human body. To differentiate true CAR agonists from cytotoxic substances, the assay is multiplexed with a cell viability assay.
# Tox21 Assay Protocol Summary: A double-stable (hCAR and CYP2B6-2.2kb) transfected cell line, derived from human hepatoma (HepG2) cells, was utilized for the duration of the quantitative high-throughput screens. The HepG2-CYP2B6-hCAR cells were dispensed at 2500 cells/4 uL/well in 1536-well white solid bottom plates using a Multidrop Combi. After the assay plates were incubated at 37 C/5% CO2 for 4 hrs, 23 nL of compounds at 15 concentrations (from 5-48 columns) or positive control (from 1 to 4 columns) were transferred to the assay plates using a Pintool station. One uL of PK11195 (final concentration = 0.75 uM) was added, using a Flying Reagent Dispenser, inside each well. After a 23 hr incubation period at 37 C/5% CO2, 1 uL of CellTiter-Fluor reagent was added into each well of the assay plates using a Flying Reagent Dispenser. The fluorescence intensity in the plates was then measured using a ViewLux plate reader.
# Potency is read from the fitted curve at half-maximal effect; tags tell the direction and shape of the fitted curve.
row,Compound,Potency
1,C1CCC(C(CC2CCCCN2)C2CCCCC2)CC1 (stereo not given),inconclusive: 33.5 µM [cytotoxic]
2,CC(=O)[C@H]1CC[C@H]2[C@@H]3CC=C4C[C@@H](O)CC[C@]4(C)[C@H]3CC[C@]12C,"inconclusive: 11.9 µM [cytotoxic, single point]"
3,CC(=O)NC1(c2cccc(F)c2)CCN(CC[C@@]2(c3ccc(Cl)c(Cl)c3)CN(c3ccccc3)C(=O)CO2)CC1,inconclusive: 54.6 µM [cytotoxic]
4,Oc1ccc2ccccc2c1N=Nc1ccccc1,active: 48.5 µM and active: 30.6 µM
5,O=C1c2ccccc2C(=O)N1CCc1noc(-c2ccc(CN3CCCCCC3)s2)n1,"inconclusive: 62.9 µM [cytotoxic, partial curve, poor fit]"
6,CN(C)CCCN1c2ccccc2Sc2ccc(C(F)(F)F)cc21,inconclusive: 29.8 µM [cytotoxic]
7,Cc1ccc(N/N=c2\c(=O)cc/c(=N\Nc3ccc(S(=O)(=O)O)cc3)c2=O)c(C)c1,active: 30.6 µM
8,CCc1nc(N)nc(N)c1-c1ccc(Cl)cc1,"inconclusive: 55.3 µM [cytotoxic, partial curve] and inconclusive: 24.3 µM [cytotoxic, partial curve]"
9,CCCCCCCCCCCC[N+](C)(C)CCCCCCCCCCCC,active: 27.3 µM
10,O=S(=O)(O)c1cc(S(=O)(=O)O)c2c(N=Nc3ccccc3)c(O)ccc2c1,"inconclusive: 54.7 µM [cytotoxic, partial curve] and inconclusive: 61.1 µM [cytotoxic]"
11,CN1CCc2cccc3c2[C@H]1Cc1ccc(O)c(O)c1-3,"inconclusive: 13.3 µM [cytotoxic, full curve, poor fit]"
12,CCCCCCCCS(=O)C(C)Cc1ccc2c(c1)OCO2 (stereo not given),inactive
13,CC(C)n1nc(-c2cc3cc(O)ccc3[nH]2)c2c(N)ncnc21,"inconclusive: 0.596 µM [cytotoxic, full curve]"
14,O=c1cc(-c2ccccc2)oc2cc(O)cc(O)c12,"inconclusive: 48.6 µM [cytotoxic, partial curve]"
15,CN(C)C(=O)Oc1ccc[n+](C)c1,inactive
16,CCN(CC)CCOc1ccc(C(O)(Cc2ccc(Cl)cc2)c2ccc(C)cc2)cc1 (stereo not given),"inconclusive: 33.5 µM [cytotoxic, single point]"
17,CNC(=O)c1cc(Oc2ccc(NC(=O)Nc3ccc(Cl)c(C(F)(F)F)c3)cc2)ccn1,"inconclusive: 33.5 µM [cytotoxic, single point]"
18,Cc1nc2ccccc2s1,inactive
19,Nc1ccccc1N,"inconclusive: 1.4 µM [cytotoxic, full curve] and inconclusive: 4.86 µM [cytotoxic, full curve]"
20,CCCCCCCC[P+](CCCCCCCC)(CCCCCCCC)CCCCCCCC,active: 1.92 µM

row,Compound,Potency
1,CCCCCCCCOc1ccc(C(=O)O)cc1,inactive
2,NCCc1ccc(O)c(O)c1,"inconclusive: 30.7 µM [cytotoxic, partial curve]"
3,CC(=O)[C@]1(O)Cc2c(O)c3c(c(O)c2[C@@H](O[C@H]2C[C@H](N)[C@H](O)[C@H](C)O2)C1)C(=O)c1ccccc1C3=O,active: 2.66 µM
4,CC(=O)O[C@]1(C(C)=O)CC[C@H]2[C@@H]3C=C(Cl)C4=CC(=O)CC[C@]4(C)[C@H]3CC[C@@]21C,"inconclusive: 68.5 µM [cytotoxic, partial curve, poor fit]"
5,O=c1[nH]ncc2ccccc12,inactive
6,Nc1ccccc1O,inconclusive: 67.7 µM [cytotoxic]
7,CCOC(=O)c1ccc(O)c(O)c1,"inconclusive: 13.3 µM [rising, single point]"
8,CC(N)=O,inactive
9,O=C1OC2(c3ccc(O)cc3Oc3cc(O)ccc32)c2ccccc21,"inconclusive: 54.5 µM [rising, partial curve] and inconclusive: 13.3 µM [rising, partial curve]"
10,NC(=O)c1nc(-c2cccc(-c3cc(F)ccc3OCC(F)(F)C(F)(F)F)c2)n[nH]1,active: 61.1 µM
11,"Cc1c2oc3c(C)ccc(C(=O)N[C@@H]4C(=O)N[C@H](C(C)C)C(=O)N5CCC[C@H]5C(=O)N(C)CC(=O)N(C)[C@@H](C(C)C)C(=O)O[C@@H]4C)c3nc-2c(C(=O)N[C@@H]2C(=O)N[C@H](C(C)C)C(=O)N3CCC[C@H]3C(=O)N(C)CC(=O)N(C)[C@@H](C(C)C)C(=O)O[C@@H]2C)c(N)c1=O (I: T[dV]P[Sar][NMeV] / II: T[dV]P[Sar][NMeV]; ester I:1-I:C, II:1-II:C; linker I:N-II:N via Actinocin(9to1))","inconclusive: 0.0033 µM [cytotoxic, full curve, poor fit]"
12,CC1COc2ccccc2N1C(=O)C(Cl)Cl (stereo not given),"active: 27.3 µM and inconclusive: 30.6 µM [cytotoxic, partial curve]"
13,Nc1nc(N)nc(-c2ccccc2)n1,inactive
14,CCN(CC)c1ccc(C(=C2C=CC(=[N+](CC)CC)C=C2)c2cc(S(=O)(=O)O)ccc2S(=O)(=O)[O-])cc1,"inconclusive: 15 µM [cytotoxic, partial curve]"
15,Oc1cc2c(cc1O)[C@H]1c3ccc(O)c(O)c3OC[C@@]1(O)C2,active: 49.2 µM
16,Nc1c2c(nc3ccccc13)CCCC2,"inconclusive: 27.3 µM [cytotoxic, partial curve]"
17,c1cc(N(CC2CO2)CC2CO2)ccc1OCC1CO1 (stereo not given),"inconclusive: 61.2 µM [cytotoxic, partial curve]"
18,CC1CN(c2ccccc2)NC1=O (stereo not given),inactive
19,COc1cc(C=C2CCC/C(=C\c3ccc(O)c(OC)c3)C2=O)ccc1O,"inconclusive: 29.8 µM [cytotoxic, partial curve]"
20,Cc1ccc(Cl)c(N)c1Cl,inactive

# Reference: PubChem BioAssay (Tox21)
